From PubChem BioAssay AID1468 (National Center for Advancing Translational Sciences (NCATS), 2008)
Out of some 280,000 compounds screened, about 1,100 (0.39%) were called active. The inconclusive results got no clear call from the source; some entries with a clear call stand among them for comparison. The call rests on the fitted dose curve; in most records, active means well fitted inhibition curve with a large enough effect; inconclusive means small, poorly fitted or top-dose-only effect, or effect the other way; inactive means flat fitted curve, though single readings scatter. No potency is given beside an inconclusive call; the fits are too rough.

molecular target: Microtubule-associated protein tau (Homo sapiens) (UniProt P10636); assay: qHTS for Inhibitors of Tau Fibril Formation, Fluorescence Polarization; settings: K18 P301L tau heparin fibrillization, Alexa594 FP, 6 h; series mostly up to 57.7 µM; activity, negative = inhibition: at the top concentration; further: nearly all actives have a fitted effect of over 55% in size
Procedure, shortened: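 Heparin (20 uM) drove fibril formation of recombinant tau K18 P301L, 15 uM unlabeled with 0.24 uM Alexa 594 label, for 6 hr at 37 C in 100 mM sodium acetate pH 7. Fluorescence polarization (555/632 nm) read 1 hr after 30 uM ThT.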
On the % scale 0 is the no-effect control and ±100 the full control effect; potency means the concentration at half of the fitted maximal effect; tags describe the fitted curve by direction and shape.

UniProt P10636, sequence (P10636 whole entry, looked up): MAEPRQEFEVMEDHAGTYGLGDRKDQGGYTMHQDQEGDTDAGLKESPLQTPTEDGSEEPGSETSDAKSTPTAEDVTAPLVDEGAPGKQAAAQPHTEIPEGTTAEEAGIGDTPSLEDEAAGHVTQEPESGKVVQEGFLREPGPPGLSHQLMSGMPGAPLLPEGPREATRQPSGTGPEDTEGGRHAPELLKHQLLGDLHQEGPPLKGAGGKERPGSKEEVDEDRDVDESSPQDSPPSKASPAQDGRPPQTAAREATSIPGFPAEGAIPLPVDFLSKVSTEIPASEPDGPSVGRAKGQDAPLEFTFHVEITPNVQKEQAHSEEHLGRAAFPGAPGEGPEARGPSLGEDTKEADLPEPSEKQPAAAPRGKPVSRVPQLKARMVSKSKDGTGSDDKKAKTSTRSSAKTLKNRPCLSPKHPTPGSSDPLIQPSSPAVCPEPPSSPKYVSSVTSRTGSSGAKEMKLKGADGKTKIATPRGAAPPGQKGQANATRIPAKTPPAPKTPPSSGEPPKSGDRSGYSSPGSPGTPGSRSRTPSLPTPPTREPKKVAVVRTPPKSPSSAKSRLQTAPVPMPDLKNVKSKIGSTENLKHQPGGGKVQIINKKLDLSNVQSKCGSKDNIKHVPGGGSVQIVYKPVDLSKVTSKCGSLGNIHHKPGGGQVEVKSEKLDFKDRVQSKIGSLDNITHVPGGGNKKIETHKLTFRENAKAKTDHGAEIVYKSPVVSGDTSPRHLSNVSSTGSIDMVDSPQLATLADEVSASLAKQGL

Structure (SMILES) | Potency | activity, negative = inhibition
COc1ccc(Cl)cc1S(=O)(=O)N1CCC(O)(c2ccc(Cl)cc2)CC1 | inconclusive [inhibitor, partial curve, poor fit] | –
CCSc1nc2ccccc2n1C(=O)/C=C/c1ccc(OC)c(OC)c1 | active: 7.94 µM | –
O=C(Cn1c2ccc(F)cc2c2nc3n(c(=O)c21)CCS3)Nc1ccccc1C(F)(F)F | inconclusive [inhibitor, partial curve] | –
CCN(CC)c1ccc(NC(=O)CCS(=O)(=O)c2cc3c(cc2Cl)NC(=O)CO3)c(C)c1 | inconclusive [inhibitor, full curve] | –
Cn1cccc1Cc1nnc(SCC(=O)N2CCOCC2)n1CCc1ccccc1 | – | inactive: 8.26%
Cc1cccc(C(=O)Nc2cccc(Br)c2)c1[N+](=O)[O-] | inconclusive [inhibitor, single point] | –
CSc1ccc(CCNC(=O)c2ccc(-c3nc(COc4ccccc4)c(C)o3)cc2)cc1 | inconclusive [inhibitor, single point] | –
CCN(CC)c1ccc(NC(=O)COC(=O)C23CCC(=O)N2c2ccccc2S3)cc1 (centres undefined) | inconclusive [activator, single point] | –
Fc1ccccc1N1CCN(C(c2cccs2)c2nnnn2CCc2ccccc2)CC1 (centres undefined) | inconclusive [inhibitor, single point] | –
COCCCN1C(=O)/C(=C/c2ccc(CNS(=O)(=O)c3ccccc3)o2)C(C(=O)OC)=C1C | inconclusive [inhibitor, single point] | –
O=C(COC(=O)COc1ccccc1[N+](=O)[O-])Nc1ccc(S(=O)(=O)N2CCCCC2)cc1 | inconclusive [inhibitor, full curve, poor fit] | –
O=C(Cn1c(SCCOc2ccccc2)nc2ccccc21)N1CCOCC1 | – | inactive: -11.8%
O=C(Nc1ccc(F)cc1)N1CCC(c2nc3c(nnn3Cc3ccccc3Cl)c(=O)[nH]2)CC1 | – | inactive: 1.71%
COc1ccc(NC(=O)c2cc3c(Cl)nc4ccccc4c3s2)c(OC)c1 | – | inactive: 5.5%
Cc1ccc(C)c(N2CCN(C(=O)Cc3c(C(=O)O)[nH]c4ccc(Cl)cc34)CC2)c1 | inconclusive [inhibitor, single point] | –
Cc1cc(OCCn2cc(C(=O)c3cccs3)c3ccccc32)ccc1Cl | inconclusive [inhibitor, single point] | –
COc1ccc2c(c1)O[C@@H]1c3ccc(OC)cc3OCC21 (some centres undefined) | – | inactive: 4.08%
CCCCc1ccc(/C=C2\C(=O)c3ccccc3C(O)=C2C(=O)OCC)cc1 | inconclusive [inhibitor, partial curve] | –
CCOC(=O)c1c(-c2ccc(C)o2)csc1NC(=S)NC(=O)c1cccs1 | inconclusive [inhibitor, single point] | –
COc1cc(C(CCN2CCOCC2)c2c(OC)cc(OC)c3ccc(=O)oc23)cc(OC)c1OC (centres undefined) | inconclusive [inhibitor, single point] | –
O=C(NC(=S)Nc1ccc2c(c1)OCCO2)c1ccccc1F | – | inactive: -12.7%
COc1ccc(-c2cc(C(=O)NNC3=NCCC3)c3c(C)nn(-c4ccccc4)c3n2)cc1 | – | inactive: 14.3%

Structure (SMILES) | Potency | activity, negative = inhibition
COc1cc(S(=O)(=O)Nc2ccc(C)cc2)ccc1N=Cc1c(C)c(C#N)c(=O)n(C)c1O | inconclusive [inhibitor, single point] | –
O=c1c2ccccc2nnn1COc1ccc(Cl)cc1Br | inconclusive [inhibitor, full curve, poor fit] | –
CCOc1ccc(N=c2cc(-c3ccc(OC)cc3)oc3ccccc23)cc1 | inconclusive [activator, partial curve] | –
COCCCNC(=O)c1cc(-c2ccc(OC)cc2)nc2n[nH]c(-c3ccc(Cl)cc3)c12 | inconclusive [inhibitor, partial curve] | –
CC(Sc1nc(N2CCOCC2)c2c(c1C#N)CC(C)(C)OC2)C(=O)Nc1ccccc1 (centres undefined) | inconclusive [inhibitor, single point] | –
O=C(Nc1ccc(-c2nc3ccccc3s2)c(O)c1)C1=COCCO1 | inconclusive [inhibitor, partial curve, poor fit] | –
CCOc1ccc(NC(=S)Nc2ccc3nsnc3c2)cc1 | inconclusive [inhibitor, full curve] | –
Cc1nc2ccc(NC(=O)c3ccc(F)c(S(=O)(=O)N4CCOCC4)c3)cc2s1 | inconclusive [inhibitor, single point] | –
COc1ccccc1NC(=O)c1cc(S(=O)(=O)NCc2ccccc2)ccc1F | inconclusive [inhibitor, single point] | –
COc1ccc(NS(=O)(=O)c2cc(NC(=O)c3sccc3C)ccc2N2CCOCC2)cc1 | – | inactive: 1.71%
CCOC(=O)c1[nH]c2c(c1-c1ccccc1)C(=O)CC(c1ccc(Cl)cc1)C2 (centres undefined) | inconclusive [inhibitor, full curve, poor fit] | –
Cc1cc(C)cc(-n2c3nc4ccccc4nc3c3c(=O)n(Cc4ccco4)cnc32)c1 | inconclusive [inhibitor, partial curve, poor fit] | –
Cc1nn(CC(=O)NCc2cccc(Br)c2)c(=O)c2c1sc1ccccc12 | inconclusive [inhibitor, full curve] | –
COc1ccc(CCNC(=O)COc2ccc(-c3ccc(C#N)cc3)cc2)cc1 | inconclusive [inhibitor, single point] | –
COc1ccc(OCC(=O)NNC(=O)C2CCCO2)cc1 (centres undefined) | inconclusive [activator, partial curve] | –
CN(c1ncc(C(F)(F)F)cc1Cl)N1C(=O)c2cccc(N)c2C1=O | inconclusive [inhibitor, single point] | –
CCn1c(C)cc(=S)c2ccccc21 | inconclusive [inhibitor, single point] | –
Cc1cc(C)c(S(=O)(=O)Nc2ccc(O)cc2)cc1C | – | inactive: 3.95%
CN(C)S(=O)(=O)c1cc(NC(=O)COC(=O)Cc2ccc(Br)cc2)ccc1Cl | inconclusive [inhibitor, full curve] | –
O=C(CSCc1ccc(F)cc1)N1CCc2c([nH]c3ccccc23)C1c1ccc(F)cc1 (centres undefined) | inconclusive [activator, single point] | –
Cc1cccc(Sc2ccc([N+](=O)[O-])cn2)c1 | – | inactive: 7.52%
CCN(CC(=O)Nc1ccccc1SC)Cc1nc2ccccc2c(=O)[nH]1 | – | inactive: -7.34%

Structure (SMILES) | Potency | activity, negative = inhibition
CCOc1ccc(NC(=O)c2ccc3c(c2)nnn3C2CCCC2)cc1 | – | inactive: -1.16%
CCOC(=O)N1CCN(S(=O)(=O)c2ccc(C(=O)NNc3nc4c(C)cccc4s3)cc2)CC1 | inconclusive [inhibitor, single point] | –
Cc1c(C(=O)Nc2cccc(C(F)(F)F)c2)oc2ccc(S(=O)(=O)N3CCC4(CC3)OCCO4)cc12 | inconclusive [inhibitor, single point] | –
COc1cccc2nc3cc(C)c(C)cc3nc12 | inconclusive [inhibitor, single point] | –
CCc1ccccc1NC(=O)CSc1nc(C)c(C(=O)Nc2ccccc2)c(-c2ccc(Cl)cc2)c1C#N | inconclusive [inhibitor, full curve] | –
CCC(=O)c1ccc2c(c1)OCCO2 | – | inactive: -3.43%
O=C(Cn1c(C(F)(F)F)nc2ccccc21)N=Nc1c(O)[nH]c2ccc(Br)cc12 | inconclusive [inhibitor, partial curve] | –
Cc1[nH]c(=O)[nH]c(=O)c1NC(=O)CSc1ncccc1-c1nc2ccccc2[nH]1 | inconclusive [inhibitor, single point] | –
N/C(=N\c1nc2ccccc2o1)NC(=O)c1ccc(F)cc1 | inconclusive [inhibitor, single point] | –
CC1(C)SC(=S)N(NC(=O)Nc2ccccc2)C1N(O)C(=O)Nc1ccccc1 (centres undefined) | inconclusive [inhibitor, single point] | –
O=C(Nc1nc2c(F)cc(F)cc2s1)c1ccc2c(c1)OCCO2 | inconclusive [inhibitor, partial curve, poor fit] | –
Cc1ccc(NC(=O)C(OC(=O)c2ccc(F)cc2)c2ccccc2)cc1Cl (centres undefined) | inconclusive [inhibitor, partial curve] | –
Cc1ccsc1-c1n[nH]c(=S)n1CC(C)C | – | inactive: 3.15%
O=C(Nc1ccc2c(c1)OCCO2)c1cc(-c2ccccc2)nc2ccccc12 | inconclusive [inhibitor, single point] | –
CC(=O)Nc1ccc(OS(=O)(=O)c2c(C)cc(C)cc2C)cc1 | inconclusive [inhibitor, partial curve] | –
COc1ccc([N+](=O)[O-])cc1NC(=O)c1cn(-c2ccc(Cl)cc2)c(=O)c2ccccc12 | inconclusive [inhibitor, partial curve, poor fit] | –
O=C1CN(CC(=O)N2CCCCC2)c2ccccc2O1 | inconclusive [inhibitor, single point] | –
Cc1cc(C)c(S(=O)(=O)NCCc2sc(-c3cccnc3)nc2C)c(C)c1 | inconclusive [inhibitor, single point] | –
Cc1cc2c(N)cccc2nn1 | inconclusive [inhibitor, partial curve] | –
CC(C)(C)C(=O)/C=c1\[nH]c(=O)/c(=C\c2ccccc2F)s1 | inconclusive [inhibitor, single point] | –
